# Reference: PubChem BioAssay (NCI)
# Some compounds were tested as several samples or in several runs, with calls that do not always agree.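 48-hour exposure, single concentration, 96-well plates; percent growth endpoint where 0 means no net growth. Active: below 10.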 Not every entry of the source has a single result; some have several. The list is limited to them. The source may hold further records. These are repeated runs of one drug, at its own concentration, as given; each value is one run. Brackets with × say how often a value occurs here.
# Tested on: SF-295 CNS
# Assay: NCI-60 one-dose screen, 48 h (100 = growth as untreated, 0 = no growth, -100 = all killed)
smiles,measurement,setting,value
COc1cccc2c1C(=O)c1c(O)c3c(c(O)c1C2=O)C[C@@](O)(C(=O)CO)C[C@@H]3OC1CC(N)C(O)C(C)O1 (stereo not given in full),growth,"0.25 µM, runs of 2018","inactive: 26.9, 25.6, 36.9 (3×), 17.9, 21.1, 27.7, 22.4, 23.8, 30.8 (2×), 30.5 (2×), 35.9, 34, 35.6, 34.7 (2×), 33.7, 25.5, 31.7, 18, 23.7, 26, 35, 33, 25.7, 29.9, 28.2, 55, 52.9, 24.8 (2×), 27.4, 31, 37.3, 37.1 (2×), 34.6, 41.1, 38.6, 19.6, 16.9, 21.4, 21.7, 26.7, 32.4, 30.2, 38.2, 35.7, 40.5, 45.6, 49.5, 10.7, 27.9%"
same,growth,"0.25 µM, runs of 2019","inactive: 19.6 (3×), 21.7 (3×), 30.2, 13.2, 17.3 (2×), 21.6 (2×), 17.1, 20.4, 20.9, 23.9, 23, 23.6 (2×), 20.5, 12.6, 15.6, 12.4, 19.4, 20.8 (2×), 15.1, 13.1, 19.1 (2×), 28.2, 19, 16.8, 23.4, 23.7, 27, 23.5, 20.2, 23.3, 25.4, 21.1, 12.9, 12.3% and active: 5.84%"
same,growth,"0.25 µM, runs of 2020","inactive: 13.4, 15.3, 18.6, 19, 42.9, 21.3, 32 (2×), 19.1, 11.5, 18.5, 22.3, 28.2, 32.4, 46.1, 28.3, 29.6, 26.5, 25, 30.8, 24.8, 30%"
same,growth,"0.25 µM, runs of 2021","inactive: 29.9, 43.6, 31.8, 27.9, 27.4, 23.3, 27.5, 17.8, 17.1, 17.7, 22.4, 21.4 (2×), 26.4 (2×), 16.6, 14.5 (2×), 19.5 (2×), 18.9, 23.4, 20.3, 22.7, 19.4, 22.3, 29.6, 32 (2×), 24.8 (2×), 17.9 (2×), 27, 18.4, 34.3, 29.8, 26, 23.7, 20.5, 25.7, 14.8, 21.2, 11.1, 32.8, 45.7, 11.3, 10.2, 24.5, 21.3, 20.4%"
same,growth,"0.25 µM, runs of 2022","active: 2.13, 1.99, -4.12, 9.46, 8.18, 7.81% and inactive: 15.4, 10.7, 14.1, 15.7, 27.3, 36.5, 13, 19.5, 21.1, 19, 22.8, 10.2, 52.4, 55, 26, 51.6, 52, 85.4, 23.7, 26.9, 27.7, 22%"
same,growth,"25 µM, runs of 1991","active: -88.8, -98.2, -59.3, -73.4, -94.6, -94.8, -40.8, -24.5, -39.4, -100, -91.8, -35.8, -35.4, -33.8, -43.5, -55, -44.5, -44.7, -44.4%"
same,growth,"25 µM, runs of 1992","active: -49.9, -47.8, -43.6, 4.07, -46.2, -57, -40.5, -59.5, -68, -38.8 (2×), -35.6, -39.1, -13.9, -25.2, -52.8, -57.9, -63.3, -71.2, -67.5, -59.7 (2×), -10.5, -56.8, -44.4, -35.2, -62.1, -21.1, -28.8, -76.6, -47.7, -41.4, -55.1, -49, -46.4, -37.9, -21, -61.4, -59.1 (2×), -78, -45.8, -21.2, -24.4, -25, -18.8, -16.3, -33.7, -23.5, -3.12, -19.7, -25.3, -64.4, -50.4, -12.4, -28, -13.4, -30.6, -24.3, -24.6, -63.1 (2×), -72.6, -78.3, -81.7, -87.6, -36.4, -1.4, -23.7, -27.4, -40.2, -28.2, -41.7, -41.1, -57.2, -52.3, -48.8 (2×), -51.5, -47.4, -51.8, -54.5, -31.7, -46.5, -66.4, -65.7, -59.8 (2×), -50.3, -81.4, -15.4, -36, -38.4, -25.6, -51.4, -44.2, -53.4, -60.5, -17.5, -17.7, -42.4, -54.7, -56.2, -60.1, -55.7, -49.4, -40.3, -62%"
same,growth,"25 µM, runs of 1993","active: -51.8, -49.8, -14.5, -25.5, -59.3, -21.1, -55.1, -35.5, 0.421, -25.3, -55.7, -52.3, -62.2, -27.1, -39.9, 4.77, -20.3, -59.7, -67.3, -53.3, -0.268, -4.51, -18, -7.55, -57.7, -62.9, -78.2, -17.7, -62.1, -57.1, -51.9, -4.26, -57.5, -32, -37, -48.7, -51.5, -63.6, -54.7, -28.9, -60.7, 4.07, -29.9, -45%"
same,growth,"25 µM, runs of 1994","inactive: 13.2%, 101% and active: -70.5, -22.3, -48.9 (2×), 2.45, -47.7, -46.1, -3.59, -15.3, -15.2, -66.9, -11.4, -16.1, -15.1, -6.87, -74.6, -14.7, -24.9, -38.4, -40.2, 7.03, -11, -42.2, -12.9, -25.3, -17.7, -48.4, -19.9%"
same,growth,"25 µM, runs of 1995","active: -31, -19.2, -39.8, 3.18, -33.3, -15.9, -18.1, -15.5, -3.79, -23.4, 3.27, -7.81, -12.1 (2×), -11.5, -34.3, -28.9, -47.6, -44.4, -43.6, -55.8, -3.14, -8.06, -42.6, -32.8, -42.1, -42.4, -23.2, 3.93, -51.2, -64, -53.7, -67.3, -46.9, -39.2, -69.2, -50% and inactive: 10.9%"
same,growth,"25 µM, runs of 1996","active: -49.7, -36.8, -58.9, -5.78, -10.1, -47.6, -20.5, -6.3, -41, -40, -56, -38.8, -32.1, -42.7, -13.2, -9.13, -48.7, -20, -7.03, -5.24, -27.1, -7.31, -10.5, -9.03, -25.7, -50.6, -21.8, -85.5, -56.4, -2.45, -50.2, -41.6, -34.5, -20.2, -58.4, -36, -68.4, -61.4, -61.3, -37.9, -26.5, -34.4, -29.3, -52.8, -39.5, -23.1, -46.3, -45.4, -17.8, 7.97, -29.2, -34.8, -61.5, -23.9, -56.2, -57.9% and inactive: 92.9%, 40.7%"
same,growth,"25 µM, runs of 1997","active: -25.7, -36.7, -58.1, -48.1, -32.4, -67.9, -64.3, -34.8, -68.5, -60, -27, -51.4, -56, -27.1, -41.4, -42.9, -76.3, -82.5, -18.5, -65, -54.4, -49.4, -70.2, -33.5, -48.4, -66.2, -49.5, -7.3, -25.9, -32.7, -67.4, -72.9, -67.2, -69.7, -45.9, -66.6, -49.2, -32, -20.3, -58.6, -51.9, -40.4, -39.8%"
same,growth,"25 µM, runs of 1998","active: -33.9, -31.3, -18.4, -27.5, -45.3, -48.4, -55, -46.4, -69.4, -39.7, -50.2, -80.4, -71.5, -3.59, -29.6, -31.4, 4.02, -58.4, -22.8, -35.4, -35.8, -3.06, -16, -1.53%"
same,growth,"25 µM, runs of 1999","active: -32.1, -37.2, 6.04, -0.743, -16.2, -11.8, -17.4, 1.86, -51.4, -4.55, -41.7, -96.7, 5.41, 0.496, 5.94, -100, -68.2, -80.5%"
same,growth,"25 µM, runs of 2000","active: -2.86, -100, -47.8, -43.1%"
